PubChem BioAssay AID463173 (ICCB-Longwood Screening Facility, Harvard Medical School, 2010)
The whole screen tested about 52,000 compounds, of which about 1,700 (3.3%) were called active. No stated cut-off is given here; in the data, active means survival mostly below about 52% (no sharp cut-off); inactive means mostly above about 56%. The list shows a part of the results.

The compounds below were run on Wild type (assay: S. aureus survival, RN4220 and DeltatarO strains – OD600, teichoic acid synthesis inhibitors, primary screen (AID 463173)). Conditions: S. aureus RN4220 wild type/DeltatarO growth, OD600, 18 h, stronger effect = lower value, screened at 18.75 µg/mL (by protocol).
`O=C(Nc1ccccc1Br)N1CCN2CCCCC2C1` (configuration not stated) was tested, and the survival was inactive: 92%. With `Cc1nn2c(=O)cc(COC(=O)c3ccc(F)cc3)nc2s1` the survival was inactive: 73%. With `CCc1ccc(NC(=O)CN2C(=O)CCSc3ccc(S(=O)(=O)N4CCCC4)cc32)cc1` the survival was inactive: 69%. In the case of `COc1ccc(C(=O)c2cn(Cc3cccc(C)c3)c3cc4c(cc3c2=O)OCCO4)cc1OC`, the survival is reported as inactive: 101%. For `CC(C)n1c(N2CCN(Cc3ccc(Cl)cc3)CC2)nc2ccccc21`, the survival was inactive: 128%. `Cn1nnnc1SCCCNCc1ccccc1OCc1ccccc1F` was tested, and the survival was inactive: 87%. `COC(=O)c1ccccc1NC(=O)c1cc(=O)c2ccc(C)c(C)c2o1` was tested, and the survival was inactive: 83%. `CC1CN(CCC(=O)Nc2ccc3c(c2)OCO3)CC(C)O1` (configuration not stated) was tested, and the survival was inactive: 113%. For `COc1ccc(CCNC(=O)Cn2ccc3cc(S(=O)(=O)N4CCCCC4)ccc32)cc1OC`, the survival was inactive: 75%. In the case of `Cc1ccc(N(C(=O)c2cccc(C)c2)S(=O)(=O)c2ccc(Cl)cc2)cc1`, the survival is reported as inactive: 65%. `CCN(CC)CCNC(=O)Cn1ncc2c3ccccc3n(Cc3ccccc3C)c2c1=O` was tested, and the survival was inactive: 103%. With `O=S(=O)(c1ccc2[nH]c3c(c2c1)CCCCC3)N1CCN(c2ccccc2)CC1` the survival was inactive: 77%. For `COc1cccc(CNC(=O)c2cc(-c3cccc(OC)c3)n[nH]2)c1`, the survival was inactive: 74%. `COc1ccc(NC(=O)N2CCN(C(=O)C(Cc3ccc(F)cc3)NC(C)=O)CC2)cc1` (configuration not stated) was tested, and the survival was inactive: 113%. `CN1CCC(N(Cc2ccco2)C(=O)c2cc3sccc3n2Cc2ccccc2)CC1` was tested, and the survival was inactive: 109%. In the case of `Cc1ccc(N2CCN(C(=O)CCc3c(C)nc4c(c3C)c(=O)n(C)c(=O)n4C)CC2)c(C)c1`, the survival is reported as inactive: 77%. With `O=C(CCn1cnc2ccccc2c1=O)NCc1ccccc1` the survival was inactive: 120%. For `CC(=O)C1=C(c2ccc(Cl)c(Cl)c2)N(C(C)=O)n2c(C)nnc2S1`, the survival was inactive: 121%. In the case of `CN1C(=O)Cc2cc(S(=O)(=O)CCC(=O)Nc3ccccc3)ccc21`, the survival is reported as inactive: 70%. With `CCN(CC)CCCNC(=O)Cn1nc(N2CCN(c3ccccc3OC)CC2)ccc1=O` the survival was inactive: 84%. With `Cc1cc(C)n(CCCO)c(=O)c1C#N` the survival was inactive: 93%. `COc1cc(OC)c(N(C)C(=O)c2nn(C)c3c2CSc2ccccc2-3)cc1Cl` was tested, and the survival was inactive: 70%. For `Cc1cccc(C)c1NC(=O)c1oc2c(c1C)-c1nn(Cc3ccccc3)cc1CC2`, the survival was inactive: 63%. For `CCCSCCCNC(=O)CN1C(=O)COc2ccc(S(=O)(=O)N3CCC(C)CC3)cc21`, the survival was inactive: 82%. `O=C(CN1CCOCC1)N1CCN(c2ccccc2)CC1` was tested, and the survival was inactive: 107%. For `CCc1ccc(S(=O)(=O)Nc2ccc(-c3ccc(N4CCCCCC4)nn3)cc2)cc1`, the survival was inactive: 78%. In the case of `O=C(NCC(c1ccccc1)c1ccccc1)c1nn(-c2ccccc2Cl)nc1CO`, the survival is reported as inactive: 86%. In the case of `CCOc1ccccc1NC(=O)c1sc(-n2nc(C)c(CCC(C)C)c2C)nc1C`, the survival is reported as inactive: 94%. In the case of `Cc1nc2c(C(=O)N(C)Cc3ccccc3)c[nH]n2c(=O)c1Cc1ccc(Cl)cc1`, the survival is reported as inactive: 94%. `Cc1ccc(Cl)cc1N1CCN(C(=O)c2ccc3c(c2)N(Cc2ccccc2F)C(=O)c2ccccc2S3(=O)=O)CC1` was tested, and the survival was inactive: 90%. For `C=CCNc1nc(C(C)C)nc2c1nnn2Cc1ccccc1`, the survival was inactive: 101%. `COc1ccc(Cl)cc1NC(=O)CN(C)S(=O)(=O)c1ccc(Br)s1` was tested, and the survival was inactive: 95%. With `CCOc1ccc(C(C)N)cc1` (configuration not stated) the survival was inactive: 102%. `CCCCOc1ccc(S(=O)(=O)N2CCN(c3ccccc3OCC)CC2)cc1` was tested, and the survival was inactive: 112%. With `COCCCNC(=O)CCC(=O)N1Cc2ccccc2Oc2ncccc21` the survival was inactive: 91%. With `Cc1cc2c(c3oc(=O)c4ccccc4c13)CN(Cc1ccc(F)cc1)CO2` the survival was inactive: 77%. In the case of `CCC1CCCCN1CCCNC(=O)CN1C(=O)CSc2ccc(S(=O)(=O)N3CCC(C)CC3)cc21` (configuration not stated), the survival is reported as inactive: 124%. For `Cc1cc(C)c2oc(-c3cccc(NC(=O)c4ccco4)c3)nc2c1`, the survival was inactive: 114%. For `O=C(Nc1cccc(Cl)c1)Nc1ccccc1OCc1cc(=O)n2ccccc2n1`, the survival was inactive: 67%. `Cc1ccc(-n2nc3c(N4CCCC(C(=O)NCCc5ccccc5)C4)nnc(C)c3c2C)cc1` (configuration not stated) was tested, and the survival was inactive: 74%. In the case of `Cc1ccc(CNC(=O)Cn2ccn(-c3ccc(C)c(C)c3)c(=O)c2=O)cc1`, the survival is reported as inactive: 86%. For `CN(C)c1ccc(CNC(=O)CN(C)S(=O)(=O)c2ccc3c(c2)c(=O)n(C)c(=O)n3C)cc1`, the survival was inactive: 91%. With `Cc1ccc(CNC(=O)CN(c2ccc(Cl)cc2Cl)S(=O)(=O)c2ccccc2)cc1` the survival was inactive: 69%. With `Cc1ccc(CCNC(=O)Cn2c(-c3cccs3)cc3cc(F)ccc32)cc1` the survival was inactive: 86%. In the case of `CCc1cccc2sc(N3CCN(C(=O)c4cc5ccccc5cc4OC)CC3)nc12`, the survival is reported as inactive: 123%. In the case of `COc1cccc(C(=O)Nc2c(C(=O)NC(C)(C)C)oc3ccccc23)c1`, the survival is reported as inactive: 118%. For `Cc1ccc(C(=O)CSc2nc(C)cc(SCC#N)n2)cc1`, the survival was inactive: 113%. For `CCc1cccc(NC(=O)Cn2c(=O)n(CCc3ccc(OC)c(OC)c3)c(=O)c3ccccc32)c1`, the survival was inactive: 124%. `Cc1ccc(-c2nnn(CC(=O)N(CC(=O)NCC3CCCO3)C3CCN(Cc4ccccc4)CC3)n2)o1` (configuration not stated) was tested, and the survival was inactive: 113%. In the case of `COc1ccc(CC(=O)NCc2ccc3c(c2)CCN3C(=O)c2ccc(C)cc2)cc1OC`, the survival is reported as inactive: 71%. For `O=C(Cn1ncc2c(=O)oc3ccccc3c21)NCc1ccccc1Cl`, the survival was inactive: 92%. With `O=c1c2c3c(sc2nc(NCCO)n1-c1ccccc1)CCCC3` the survival was inactive: 100%. For `CCOC(=O)c1c(C)[nH]c(C)c1S(=O)(=O)N1CCCC(C(=O)Nc2ccc(OC)c(Cl)c2)C1` (configuration not stated), the survival was inactive: 100%. With `O=C(Cn1ncc2c3ccccc3n(Cc3ccccc3F)c2c1=O)NCCc1ccc(Cl)cc1` the survival was inactive: 65%. For `COc1cccc(CNC(=O)CSc2c3c(nc4ccc(Cl)cc24)CCCC3)c1OC`, the survival was inactive: 76%. `O=C(Cn1cnc(S(=O)(=O)N2CCCC2)c1)Nc1ccc(OC(F)(F)F)cc1` was tested, and the survival was inactive: 84%. In the case of `CCc1ccc(NC(=O)c2cc3sc(Cl)cc3n2C)cc1`, the survival is reported as inactive: 116%.
